The nature of the experiment: Primary qHTS for Identification of Small Molecule Activators of Huntingtin-Antisense Promoter Activity. Further: nearly all actives have a fitted effect of over 55% in size. Particulars: HEK293 HTT-AS promoter firefly luciferase reporter, 24 h; at 57.5 µM (top of the series) unless noted. From the text:
Assay Provider: Russell L. Margolis M.D.
Department Neurology, Johns Hopkins University School of Medicine, Baltimore, MD
Huntington's Disease (HD) is a neurodegenerative disorder caused by a CAG repeat expansion in exon 1 of huntingtin (HTT). While there are currently no disease-modifying treatments for HD, recent efforts have focused on development of nucleotide-based therapeutics to lower HTT expression. As an alternative to siRNA or oligonucleotide methods, we hypothesized that suppression of HTT expression might be accomplished by small molecules that either (1) directly decrease HTT expression by suppressing HTT promoter activity or (2) indirectly decrease HTT expression by increasing the promoter activity of HTT-AS, the gene antisense to HTT that appears to inhibit expression of HTT.
We developed and employed a high throughput screen for modifiers of HTT and HTT-AS promoter activity using luminescent reporter HEK293 cells; of the 52,041 compounds tested, we identified 898 replicable hits. We used a rigorous stepwise approach to assess compound toxicity and the capacity of the compounds to specifically lower huntingtin protein in 5 different cell lines, including HEK293 cells, HD lymphoblastoid cells, mouse primary neurons, HD iPSCs differentiated into cortical-like neurons, and HD hESCs. We found no compounds which were able to lower huntingtin without lowering cell viability in all assays, though the potential efficacy of a few compounds at non-toxic doses could not be excluded.
SEQUENCE No. (1, 2, 3, etc.); […] (e.g., Cells, Incubation, Reagent, etc.); VALUE and DESCRIPTION.
1; Reagent; 4 uL; 2,500 Hek293 luciferase reporter cells per wells
3; Compound; 23 nL; Control inhibitor / compound library
5; Reagent; 2.5 uL; Firefly Luc reagent; Dual-Glo Luciferase Reporter Assay System (Promega)
6; Time; 10 min; room temperature incubation
7; Detection; Luminescence; FLuc
NOTES (numbers refer to sequence above)
1; High-throughput screening, measuring luminescence from a Hek293 luciferase reporter, was performed in 1,536 well white-walled tissue-culture treated plates. 2,500 cells were plated in 4 µL of Opti-MEM per well using a Multidrop Combi Reagent Dispenser (ThermoFisher).
2; Assay plates were cultured for 24 hours.
3; Control inhibitor (PTC124; final concentration of 50 uM) and compound library (at final concentrations of 460 nM - 57.5 uM) were added to the assay plate using the Kalypsis Pintool Robotic System equipped with 1536 pinheads.
4; Cells were then incubated for 24 hours at 37 degrees C prior to luminescence measurements.
5; In all cases, luminescence was measured using the Dual-Glo Luciferase Reporter Assay System (Promega) following the manufacturer's instructions.
6; Room temperature incubation.
7; Luminescence signal was obtained using the PerkinElmer ViewLux plate reader. Results were normalized to vehicle control (0% activity) and zero RLU (-100% activity).

“And” between values parts separate entries of the source, which are not always exact repeats. Identical values can stand only once. Hit rate of the full screen: of about 48,000 compounds, about 120 (0.25%) were called active. Not shown: some 4% with an inconclusive outcome. The call rests on the fitted dose curve; in most records, active means well fitted activation curve with a large enough effect; inconclusive means small, poorly fitted or top-dose-only effect, or another doubt; inactive means no such curve, though single readings can be large or run the other way. The list shows a part of the results.

Regarding `COP(=S)(OC)Oc1ccc(S(N)(=O)=O)cc1`, the activity change, positive = activation is inactive: 1.01%.

`COc1cccc2c1C(=O)c1c(O)c3c(c(O)c1C2=O)C[C@@](O)(C(=O)CO)CC3OC1CC(N2CCOC(OC)C2)C(O)C(C)O1` (stereo not given in full): the activity change, positive = activation is inactive: -41.9%.

For `O=C(O)CCCCCCNC1c2ccccc2CCc2ccccc21`, the activity change, positive = activation was inactive: -9.32%.

As for `CCOc1ccc(CN(CCc2ccc3c(c2)OCO3)Cc2ccc(OC)c(Br)c2)cc1`, the activity change, positive = activation was inactive: -12.9% [at 57.5 µM, percent change from vehicle, -100% = no light].

Turning to `CCOc1ccc2nc(NC(=O)c3cccn(Cc4ccccc4Cl)c3=O)sc2c1`, the activity change, positive = activation was inactive: -9.43% [at 57.5 µM, percent change from vehicle, -100% = no light].

In the case of `Cc1nc2ccccc2c(=O)n1-c1ccccc1Cl`, the activity change, positive = activation was inactive: -26.6% [at 116 µM].

On to `Cc1ccccc1CN1C(=O)C(C)N=C(c2ccccc2)c2ccccc21` (stereo not given), for which the activity change, positive = activation was inactive: -27.2%.

For `CCN(CC)Cc1nccn1-c1ccc([N+](=O)[O-])cc1C(=O)c1ccccc1Cl`, the activity change, positive = activation is inactive: -18.5%.

As to `[N-]=[N+]=CC(=O)OC[C@H](N)C(=O)O`, the activity change, positive = activation was inactive: -8.82%.

For `CC1NCCOC1c1ccccc1` (stereo not given), the activity change, positive = activation was inactive: -6.63%.

For `CCc1ccc(OCC(=O)N2CCN(CCc3ccncc3)CC2)cc1`, the activity change, positive = activation is inactive: -15.9%.

Take `CCCN1CCC[C@@H]2Cc3[nH]ncc3C[C@H]21`: the activity change, positive = activation is inactive: -7.74%.

Turning to `CCC(C)(C)c1ccc(O)cc1`, the activity change, positive = activation is inactive: 3.16% [at 57.5 µM, percent change from vehicle, -100% = no light].

With `C#CC(O)(C=CCl)CC` (stereo not given), the activity change, positive = activation was inactive: -0.0368%.

For the compound `C[C@@H]1CC[C@H]2[C@@H](C)C(=O)O[C@@H]3O[C@@]4(C)CC[C@H]1[C@]32OO4`, the activity change, positive = activation was inactive: -15%.

As to `CCCN1CCO[C@@H]2c3cc(O)ccc3OC[C@@H]21`, the activity change, positive = activation is inactive: 1.71%.

`C[C@@H]1O[C@@H](O[C@H]2C[C@@H](O)[C@]3(CO)[C@H]4[C@H](O)C[C@]5(C)[C@@H](C6=CC(=O)OC6)CC[C@]5(O)[C@@H]4CC[C@]3(O)C2)[C@H](O)[C@H](O)[C@H]1O`: the activity change, positive = activation was inactive: -43.9%.

Consider `COc1cc(CCN)cc(OC)c1OC`, for which the activity change, positive = activation is inactive: -6.55% [at 116 µM].

On to `C[C@@H](N)[C@@H](O)c1ccccc1`, for which the activity change, positive = activation is inactive: -1.78%.

For `ClC1=C(Cl)[C@]2(Cl)[C@@H]3[C@@H]4C[C@@H]([C@H]5O[C@@H]45)[C@@H]3[C@@]1(Cl)C2(Cl)Cl`, the activity change, positive = activation was inactive: -14.2% [at 116 µM].

`CCC1(c2ccc(N)cc2)CCC(=O)NC1=O` (stereo not given): the activity change, positive = activation was inactive: -5.37% and inactive: -16.4%.

Regarding `Cc1ccc(C(=O)Nc2ccccc2)cc1S(=O)(=O)N1CCCC1`, the activity change, positive = activation is inactive: 7%.

As for `CNC(C)Cc1ccc2c(c1)OCO2` (stereo not given), the activity change, positive = activation is inactive: -4.47% [at 116 µM].

Turning to `O=C(CCCCl)c1ccc(F)cc1`, the activity change, positive = activation is inactive: 11.4%.

For the compound `Cc1ccc(C(C)C)c(OCC(=O)N2CCN(CCc3ccncc3)CC2)c1`, the activity change, positive = activation was inactive: -6.85% [at 57.5 µM, percent change from vehicle, -100% = no light].

For `CN(C)C(=O)Oc1cc(OC(=O)N(C)C)cc(C(O)CNC(C)(C)C)c1` (stereo not given), the activity change, positive = activation is inactive: -19.2%.

On to `NCCc1ccc(O)cc1`, for which the activity change, positive = activation was inactive: 0.336%.

In the case of `C[C@@H]1[C@H](O)[C@@H](C)C=CC=CCCC=CC=CC=CC=C[C@H](O[C@H]2O[C@@H](C)[C@H](O)[C@@H](N)[C@@H]2O)CC2O[C@](O)(C[C@@H](O)[C@H](O)CC[C@@H](O)C[C@@H](O)C[C@@H](O)CC(=O)O[C@H]1C)C[C@H](O)[C@H]2C(=O)O`, the activity change, positive = activation is inactive: -12%.

For the compound `COc1ccc(OCC(=O)N2CCN(Cc3cc(=O)n4nc(-c5ccc(OC)cc5)sc4n3)CC2)cc1`, the activity change, positive = activation was inactive: -18.1%.

Regarding `CC(C)c1ccc(OCC(=O)N2CCN(CCc3ccccn3)CC2)cc1`, the activity change, positive = activation was inactive: 2.56% [at 11.5 µM, percent change from vehicle, -100% = no light].

For the compound `Cc1ccc(OCC(=O)N2CCN(CCc3ccncc3)CC2)cc1`, the activity change, positive = activation was inactive: -0.521%.

Take `COc1ccc(OCC(=O)N2CCN(Cc3ccc(SC)cc3)CC2)cc1`: the activity change, positive = activation was inactive: -60.1%.

`COc1ccc2c(c[n+](C)c3c4cc5c(cc4ccc23)OCO5)c1OC`: the activity change, positive = activation is inactive: -42.6%.

In the case of `O=C(O)c1ccc2[nH]cc(CCCCN3CC=C(c4ccccc4)CC3)c2c1`, the activity change, positive = activation was inactive: -11.5%.

In the case of `Cc1ccccc1-n1c(/C=C/c2ccc(N(C)C)cc2)nc2ccccc2c1=O`, the activity change, positive = activation is inactive: -20.4%.

Source of the values: PubChem BioAssay AID1508624 (National Center for Advancing Translational Sciences (NCATS), 2021).
